We go through two compounds from publication PMC7856678 (Bioorganic & medicinal chemistry, 2021).

One data set is described as follows: Cytotoxicity. It counts as cell-based. The settings on record: dog, CD4-negative Cf2Th-CCR5 cells.
For data set [1], the system named is CD4-dependent HIV-1ADA in CD4-negative Cf2Th-CCR5 cells. To be noted: cited from earlier work.

In general, CC50 refers to the concentration at which the toxic effect on the cells reaches its halfway point. Low values mean harm at low concentration, high ones better tolerance by the cells. `NC[C@H](NC(=O)c1ccc(-c2ccc(C(F)(F)F)cc2F)[nH]1)c1nc(CCO)cs1` [Compound 13, N-(2-Amino-1-(4-(2-hydroxyethyl)thiazol-2-yl)ethyl)-5-(2-fluoro-4-(trifluoromethyl)phenyl)-1H-pyrrole-2-carboxamide] displayed a CC50 at 48 h in “Cytotoxicity” of 31.2 ± 1.4 µM.

For NBD-556, the “HIV-1 infection in CD4−-CCR5+ cells (entry agonist property)” value in data set [1] was “enhance HIV-1 infection”.
